Out of some 320,000 compounds screened, about 200 (0.062%) were called active. The shares of active, inactive and inconclusive entries below differ from those in the screen. Calls come from the whole dose curve; as a rule, active = well fitted activation curve with a large enough effect; inconclusive = small, poorly fitted or top-dose-only effect; inactive = no such curve, though single readings can be large or run the other way. No potency is given beside an inconclusive call; the fits are too rough.
assay: qHTS assay for re-activators of p53 using a Luc reporter; conditions: H1299 p53-A138V BP100-luciferase reporter, luminescence, 24 h; series mostly up to 92.2 µM; note: nearly all actives have a fitted effect of over 45% in size
In short: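 p53-null H1299 cells stably carrying temperature-sensitive p53-A138V and a BP100-luciferase reporter were pinned with compounds (4-point, 1:5 series) and held 24 hrs at 37 deg C. Luminescence was read 10 min after detection reagent.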
Potency is the fitted concentration of half-maximal effect; tags give direction and shape of the fitted curve.

SMILES	Potency
O=C(CCc1ccccc1)n1nc(-c2ccco2)nc1SCc1ccccc1	inconclusive [activator, single point]
COc1ccc2oc(=O)c(C(=O)N3CCN(c4ccccc4C)CC3)cc2c1	inconclusive [activator, full curve, poor fit]
Cc1ccc(Nc2nnc(-c3ccc4c(c3)OCO4)o2)c(C)c1	inconclusive [activator, partial curve, poor fit]
CC(/C=C/c1ccco1)=N\NC(=O)CNc1cccc(C)c1	inactive
Cc1nc(SCCC(=O)O)c2cc(-c3ccccc3)sc2n1	inactive
Cc1ccccc1C(=O)Nc1cccc(NC(=S)NC(=O)c2cccs2)c1	inactive
Nc1cc(Cl)ccc1C(=O)OCC(=O)NC1CCCCCCC1	inconclusive [activator, partial curve, poor fit]
CCCc1cc(C(=O)NC2CCCC2)no1	inconclusive [activator, partial curve, poor fit]
CCCc1cc2c(=O)c(-c3ccc4c(c3)OCCO4)coc2cc1OC(=O)c1ccco1	inconclusive [activator, partial curve, poor fit]
CSc1ccccc1C(=O)Nc1ccc(C)c(C)c1	inactive
CCC(C)N1C(=O)S/C(=C/c2ccc(N3CCOCC3)cc2C)C1=O (configuration not stated)	inconclusive [activator, full curve, poor fit]
CCCONC(=O)Nc1ccccc1[N+](=O)[O-]	inconclusive [activator, partial curve, poor fit]
O=[N+]([O-])c1cccc(S(=O)(=O)Nc2ccc(Cc3ccncc3)cc2)c1	inactive
CCC(C)SCC(=O)Nc1ccc(S(=O)(=O)N2CCOCC2)cc1OC (configuration not stated)	inactive
COc1ccccc1CNC1CCN(Cc2ccccc2)CC1	inconclusive [activator, full curve, poor fit]
CCCCSc1nc(NCc2ccco2)c2c3c(sc2n1)COC(C)(C)C3	inconclusive [activator, single point]
Cc1[nH]c(=O)c(C#N)c2c1CSC(C)(C)C2	inactive
c1ccc2oc(-c3csc(N4CCOCC4)n3)cc2c1	inconclusive [activator, partial curve, poor fit]
CCCOc1ccc(N2C(=O)CC(SCC(N)C(=O)OCC)C2=O)cc1 (configuration not stated)	inactive
Cc1ccc(NC(=O)N/C=C/c2ccccc2)cc1	inconclusive [activator, partial curve, poor fit]
O=c1cc(-c2cccc(F)c2)[nH]c2ccccc12	inactive
COc1ccc(NC(=O)Nc2ccccc2F)cc1	inconclusive [activator, full curve, poor fit]
CCO[C@H]1OC(C(=O)N2CCN(Cc3ccc4c(c3)OCO4)CC2)=C[C@@H](c2ccccc2)[C@@H]1CCCO	inconclusive [activator, single point]
CCNC(=S)N(CCc1ccccc1C)Cc1cc2cc(OC)c(OC)cc2[nH]c1=O	inactive

SMILES	Potency
CC1=NN(C(=O)CCc2ccc3c(c2)OCO3)C(O)(C(F)(F)F)C1 (configuration not stated)	inactive
O=C(O)c1ccc(-c2nc(-c3ccccc3)cs2)cc1	inactive
O=C(Nc1ccccc1)N(O)c1ccc(Cl)cc1	inconclusive [activator, partial curve, poor fit]
CC(C)=NNc1nc(-c2ccccc2)cs1	inconclusive [activator, full curve]
CC(C)OC(=O)CCCCCN1C(=O)CSC1=S	inconclusive [activator, partial curve, poor fit]
Cc1ccc(NC(=O)C(C)OC(=O)/C=C/c2ccccc2)cc1 (configuration not stated)	inconclusive [activator, full curve, poor fit]
COc1ccc(C(=O)NC(=S)N2CC(C)OC(C)C2)cc1 (configuration not stated)	inactive
CC(=O)c1c(C)[nH]c(C(=O)Nc2cccc3ccccc23)c1C	inactive
COc1ccc(-n2nnnc2S(=O)(=O)Cc2ccc(C(=O)O)cc2)cc1	inactive
O=C(/C(C=Nc1ccc(F)cc1)=C(/O)c1ccco1)C(F)(F)F	inconclusive [activator, partial curve, poor fit]
COc1ccc(C(=O)N2CCN(c3cccc(Cl)c3)CC2)cc1S(=O)(=O)NC1CC1	inconclusive [activator, partial curve, poor fit]
CC1CSc2ccccc2NC1=S (configuration not stated)	inactive
Cc1cccc(N2CN=c3s/c(=C\c4ccncc4)c(=O)n3C2)c1	inconclusive [activator, single point]
COCCN(C(=S)Nc1c(C)cccc1C)C(C)c1ccco1 (configuration not stated)	inactive
N#C/C(=C\c1ccccc1[N+](=O)[O-])C(=O)NCc1ccccc1	inactive
O=C1C=C(c2ccc(C(=O)O)cc2)C[C@@H](c2ccc3c(c2)OCO3)C1	inconclusive [activator, partial curve, poor fit]
O=C(CSCCO)Nc1ccc(C23CC4CC(CC(C4)C2)C3)cc1	inconclusive [activator, partial curve, poor fit]
O=C(Cc1ccc(-c2ccccc2)cc1)Nc1ncccc1O	inconclusive [activator, single point]
CSc1cccc(NC(=S)N2CCC(N(C)C3CCCCCC3)CC2)c1	inconclusive [activator, partial curve, poor fit]
O=C(c1ccco1)N1CCC(c2nc3c(nnn3Cc3c(Cl)cccc3Cl)c(=O)[nH]2)CC1	inactive
Cc1ccc(NC(=O)C2CCCN(c3ncccn3)C2)cc1C (configuration not stated)	inconclusive [activator, partial curve, poor fit]
COc1cc(/C=N/NC(=O)COc2cccc(F)c2)ccc1OS(=O)(=O)c1ccc(C)cc1	inactive
CCOC(=O)CN1C(=O)/C(=C/c2ccc(Cl)cc2)Oc2ccccc21	inconclusive [activator, single point]

Source: PubChem BioAssay AID504706 (National Center for Advancing Translational Sciences (NCATS), 2011)
